# Data taken from publication PMC4336329 (PLoS ONE, 2015).
# Screen size: about 310,000 compounds; about 2,200 (0.71%) showed an effect of 50% or more. The effect is printed as a negative number. Some of the results follow.
# Target: human ether-à-go-go-related gene (hERG) potassium channel (human, UniProt Q12809)
# Assay: primary screen, population patch clamp on CHO cells stably expressing hERG
# Sequence of human ether-à-go-go-related gene (hERG) potassium channel (Q12809 whole entry, looked up): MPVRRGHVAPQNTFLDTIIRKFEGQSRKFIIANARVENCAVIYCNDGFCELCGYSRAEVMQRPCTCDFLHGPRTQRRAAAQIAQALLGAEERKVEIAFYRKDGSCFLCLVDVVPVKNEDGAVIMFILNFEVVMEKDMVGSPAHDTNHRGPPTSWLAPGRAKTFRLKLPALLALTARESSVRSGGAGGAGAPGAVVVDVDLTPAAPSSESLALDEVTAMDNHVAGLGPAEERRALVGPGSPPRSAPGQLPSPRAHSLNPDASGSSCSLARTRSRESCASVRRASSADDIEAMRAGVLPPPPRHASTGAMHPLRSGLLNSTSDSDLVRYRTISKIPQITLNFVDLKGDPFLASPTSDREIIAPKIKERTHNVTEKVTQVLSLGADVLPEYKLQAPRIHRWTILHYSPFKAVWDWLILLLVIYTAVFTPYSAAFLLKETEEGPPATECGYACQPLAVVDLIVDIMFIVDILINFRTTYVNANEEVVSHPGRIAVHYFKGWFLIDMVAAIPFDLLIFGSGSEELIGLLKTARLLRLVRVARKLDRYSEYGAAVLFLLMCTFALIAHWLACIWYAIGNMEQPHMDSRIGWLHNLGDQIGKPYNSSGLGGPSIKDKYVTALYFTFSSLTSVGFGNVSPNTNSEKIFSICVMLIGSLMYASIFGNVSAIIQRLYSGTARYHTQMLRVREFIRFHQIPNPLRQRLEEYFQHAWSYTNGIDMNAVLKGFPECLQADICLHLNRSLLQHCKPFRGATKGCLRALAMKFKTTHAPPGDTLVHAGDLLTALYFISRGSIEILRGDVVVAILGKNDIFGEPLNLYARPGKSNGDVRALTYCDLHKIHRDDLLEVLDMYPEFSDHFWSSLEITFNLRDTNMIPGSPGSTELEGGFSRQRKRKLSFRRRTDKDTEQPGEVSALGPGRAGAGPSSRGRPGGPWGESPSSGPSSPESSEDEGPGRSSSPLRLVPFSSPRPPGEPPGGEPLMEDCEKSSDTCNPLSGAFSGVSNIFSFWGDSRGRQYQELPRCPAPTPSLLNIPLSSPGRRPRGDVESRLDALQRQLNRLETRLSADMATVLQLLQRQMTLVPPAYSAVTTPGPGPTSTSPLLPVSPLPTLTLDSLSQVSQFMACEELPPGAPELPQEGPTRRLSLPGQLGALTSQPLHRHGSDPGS
row,Compound,"hERG current change (%, negative = inhibition) at 1uM"
1,Clc1ccc(CN2CCC(Cc3ccccc3)CC2)cc1,12.3%
2,COc1ccc(OC)c2c1CC(C)(C)NC2=O,12.5%
3,CN(C)S(=O)(=O)c1cccc(NC(=S)N/N=C/c2cc(Br)ccc2O)c1,12.3%
4,C/C(CC(=O)NC(C)c1ccccc1)=N\NC(N)=S (centres unmarked),3.85%
5,C/C(=N\N1CCN(Cc2ccccc2Cl)CC1)c1ccc(F)cc1,10.9%
6,O=C(Nc1cc(S(=O)(=O)N2CCOCC2)ccc1N1CCOCC1)c1cccc(S(=O)(=O)N2CCCCC2)c1,8.85%
7,COCCNC(=O)/C(C#N)=C/c1c(N2CCCCCC2)nc2c(C)cccn2c1=O,12.6%
8,Cc1ccc(-c2nnc(Oc3cccc(C)c3)c3ccccc23)cc1,8.86%
9,COc1ccc(C(C(=O)NC2CCCCC2)N(C(=O)CCl)c2ccccc2Cl)cc1 (centres unmarked),5.14%
10,CCOc1ccc(C(=O)Nc2ccc(Cl)cn2)cc1Cl,6.8%
11,CCCCN1C[C@H](O)[C@@H](O)[C@H](O)[C@H]1CO.Cl,15.7%
12,Cc1ccc(S(=O)(=O)Nc2ccc(C(=O)N3CCCC3)cc2)cc1,2.67%
13,CCc1nc(SCC(=O)NCc2ccco2)c2c(=O)n(C)c(=O)n(C)c2n1,8.22%
14,Cc1cc(C)c(C2=CC(=O)C[C@H](c3ccc4c(c3)OCO4)C2)c(C)c1,13.8%
15,CCN(CCN(C)C)C(=O)Cn1ncc2c1-c1cc(C)ccc1OC2,-0.617%
16,CNC(=O)CN1C(=O)NC(c2ccccc2)(c2ccccc2)C1=O,7.25%
17,O=C(CCNC(=O)c1ccc([N+](=O)[O-])cc1)Nc1cccc(S(=O)(=O)N2CCOCC2)c1,-5.97%
18,O=C(Nn1c(C2CC2)nc2ccccc2c1=O)c1ccco1,-3.66%
19,CN(CCCC(=O)Nc1ccccc1F)S(=O)(=O)c1ccc(F)cc1,7.08%
20,COCCn1cc(C(=S)N2CCOCC2)c2ccccc21,4.29%
21,CSc1cc(-c2ccc(Cl)cc2)[nH]c(=O)c1C#N,8.84%
22,CC[N+](C)(CC)CCOC(=O)C(O)(c1ccccc1)C1CCCCC1.[Br-] (centres unmarked),5.01%
23,O=C(COc1ccc2ccccc2c1Br)NC(=S)Nc1cccc(CO)c1,7.86%

row,Compound,"hERG current change (%, negative = inhibition) at 1uM"
1,CCOC(=O)c1c(NC(=S)Nc2ccccc2)sc2c1CC(C)(C)SC2,2.46%
2,COc1ccc(CCNC(=O)CN(c2cccc([N+](=O)[O-])c2)S(C)(=O)=O)cc1,9.2%
3,COC(=O)c1[nH]c(C)c(/C(O)=C2\C(=O)C(=O)N(CCN(C)C)C2c2ccc(C)o2)c1C (centres unmarked),4.24%
4,CC(=O)Nc1c(I)c(NC(C)=O)c(I)c(C(=O)[O-])c1I.O.[Na+],-0.997%
5,Cc1ccc(C)c(NS(=O)(=O)c2ccc(OCC(=O)NCC3CCCO3)cc2)c1 (centres unmarked),9.63%
6,CCOCCCn1c(=NC(C)=O)c(C#N)cc2c(=O)n3ccccc3nc21,11.7%
7,COc1ccc(S(=O)(=O)N2CCC[C@H]2C(=O)NC2=NCCS2)cc1,1.86%
8,Cl.c1ccc2c(CC3=NCCN3)cccc2c1,-4.22%
9,O=C(O)/C=C/c1ccc(-n2ccnc2)cc1,16.6%
10,CC(C)(C)N/N=C/c1c(O)n(-c2ccc(Cl)cn2)c(=O)c2ccccc12,15.8%
11,Cc1ccccc1NC(=O)C(C)OC(=O)C1CC(=O)N(Cc2ccco2)C1 (centres unmarked),12.1%
12,Cc1ccc(-c2noc(CCCC(=O)NCC3CCCO3)n2)cc1 (centres unmarked),20.2%
13,O=C(c1ccc(F)cc1)N1CCC2(CC1)NCCc1[nH]cnc12,8.81%
14,COC(=O)c1cc(C)nc2c1c(C)nn2-c1ccccc1,11%
15,Cc1ccc(Cl)cc1NC(=O)C(=O)N/N=C/c1ccc2c(c1)OCO2,12.2%
16,CCS(=O)(=O)c1c([N+](=O)[O-])ncn1C,2.28%
17,O=C(/C=C/c1ccco1)Nc1scc(-c2ccccc2)c1C(=O)O,12.7%
18,Cc1c(/C=N/NC(=O)c2cccnc2)c2ccccn2c1C(=O)c1ccc(F)cc1,-1.52%
19,COc1ccc2oc(C(=O)OCC(=O)NC(=O)c3ccccc3)c(C)c2c1,9.62%
20,O=C(NCc1ccccc1)c1ccc(S(=O)(=O)C(F)F)cc1,-8.44%
21,Cc1ccc(Nc2nc(N)nc(CN3CCN(C(=O)c4ccco4)CC3)n2)cc1Cl,-54.1%
22,Nc1c(Cl)ncnc1NCc1ccccc1,11.9%
23,O=C(NC1CCCCC1)c1nc2c(nnn2Cc2ccccc2Cl)c(=O)[nH]1,17.5%

row,Compound,"hERG current change (%, negative = inhibition) at 1uM"
1,CCOC(=O)N1CCC(N2CCN(S(=O)(=O)c3ccc(C)cc3)CC2)CC1.O=C(O)C(=O)O,-4.37%
2,N#Cc1c(/N=C/c2ccco2)sc2c1CCC2,-4.57%
3,CS(=O)(=O)NN1C(=O)c2ccccc2NC1c1cccc(O)c1 (centres unmarked),10.8%
4,CN(C)/N=C/c1ccc([N+](=O)[O-])cc1[N+](=O)[O-],10.5%
5,CCSc1nnc(NC(=O)CCc2ccccc2)s1,4.4%
6,COc1ccccc1N1N=C(C(=O)c2ccccc2)C2C(=O)N(c3ccc(Br)cc3)C(=O)C21 (centres unmarked),12.9%
7,CS(=O)(=O)c1ccc2nc(NC(=O)c3cccc([N+](=O)[O-])c3)sc2c1,11.1%
8,Nc1c(C(=O)NCCN2CCOCC2)c2nc3ccccc3nc2n1CCc1ccccc1F,5.25%
9,O=C(NCCO)C(=O)NCC1CCCN1S(=O)(=O)c1cccs1 (centres unmarked),12.5%
10,Nc1c(C(=O)Nc2ccc3c(c2)OCCO3)nnn1Cc1cccc(Br)c1,3.9%
11,COCCNC(=O)CSc1nnc(-c2ccccc2F)n1Cc1ccccc1,9.99%
12,CNC(=S)N1N=C(c2ccc(OC)cc2)CC1c1ccc(Cl)cc1Cl (centres unmarked),13.9%
13,CCc1c(C(=O)Nc2cc(C)ccc2OC)[nH]c(C)c1C(C)=O,3.47%
14,CCc1sc(-c2c(C#N)c(N)nc3c2CCCCCC3)cc1[N+](=O)[O-],11.8%
15,COCCNC(=S)N(CCCO)Cc1cc2cc3c(cc2[nH]c1=O)OCCO3,11.3%
16,COc1ccc(Cc2nnc(NC(=O)Nc3cccc(OC)c3)s2)cc1,10.8%
17,CN(C)S(=O)(=O)c1ccc(Cl)c(NC(=O)COC(=O)CCC(=O)c2cccs2)c1,12.7%
18,CCN(CC(=O)NC1CCS(=O)(=O)C1)C(=O)COc1ccccc1-c1ccccc1 (centres unmarked),9.06%
19,NNC(=O)Cn1c(-c2ccccc2)cc(=O)n2ncnc12,4.8%
20,CC1CCCCN1C(=O)c1ccc(CS(=O)(=O)Cc2ccccc2)cc1 (centres unmarked),4.8%
21,CC(C)Cc1nnc(NC(=O)CCNC(=O)c2ccco2)s1,16.9%
22,O=C(N/N=C1\CCS(=O)(=O)c2ccc(F)cc21)c1ccc([N+](=O)[O-])cc1,4.44%
23,Cc1cc(-c2ccc(C(C)C)c(S(=O)(=O)NCCN3CCC(C)CC3)c2)on1,11.6%

row,Compound,"hERG current change (%, negative = inhibition) at 1uM"
1,CCN(CC)CC(O)c1cccn1-c1ccc(CNC(=O)NC(C)C)cc1 (centres unmarked),16.6%
2,COc1ccc(C)cc1NC1=NC(C)(C)CS1,7.42%
3,CC(C)(C)NS(=O)(=O)c1ccc(CCC(=O)Nc2cc(Cl)ccc2Oc2ccccc2)cc1,0.892%
4,COc1c(C)cccc1C(=O)Nc1ccc(OCC(=O)N2CCOCC2)cc1C,26.4%
5,CCOc1ccc(CN(C)C(=O)c2cccnc2SC)cc1OC,11.8%
6,COc1cccc(C(=O)NCCS(=O)(=O)N2CC(C)CC(C)C2)c1 (centres unmarked),3.24%
7,O=C(Nc1ccc([N+](=O)[O-])cc1)c1cc(Cl)sc1Cl,8.99%
8,O=C(Nc1ccc(Br)c(Br)c1)C1CCCO1 (centres unmarked),7.17%
9,NC(=O)NO,3.07%
10,COC(=O)C1=C(c2ccc(-c3ccccc3)c(F)c2)C[C@@H]2CC[C@H]1N2C(=O)N1CCCCC1,17.6%
11,N/C(CN1CCCC1=O)=N\OC(=O)c1ccc(Cl)cc1,5.34%
12,COc1ccccc1C(=O)N1CCN(c2cccc(C(F)(F)F)c2)CC1,2.93%
13,O=c1c2sccc2nc(SCc2cc(=O)n3ccccc3n2)n1-c1ccc(Br)cc1,-4.46%
14,Cl.OC(CNCc1cccc(Cl)c1)c1ccccc1 (centres unmarked),5.16%
15,Cc1ccc(Cn2cccc(NC(=O)c3ccco3)c2=O)cc1,8.08%
16,CN1CCN(C(=O)c2cc(COc3ccccc3)on2)[C@@H](c2ccccc2)C1,7.57%
17,CC1CCc2c(sc3nc4n(c(=O)c23)CCS4)C1 (centres unmarked),-1.73%
18,CC1(O)C[C@]2(C)N(O)C3CCCC[C@@H]3N2O1 (some centres unmarked),12.7%
19,Cn1cc(C(=O)Cc2ccccc2)c2ccccc21,3.47%
20,COc1ccccc1NC(=O)CSc1nnc(-c2ccc(C)cc2)o1,7.18%
